We go through 58 compounds from the supplement of paper PMC9135407.

This test concerns primary human hepatic stellate cells (donor 1). The experiment in a line: scaled lipid accumulation score (0 = DMSO-like, 1 = nortriptyline-like); higher = stronger HSC inactivation (lipid re-accumulation), active = hit call of the paper. Particulars: 48 h.
Setting [1] is: library stock concentration: 10 mM.
Where [2] appears, read: library stock concentration: 1 mM.
Where [3] appears, read: library stock concentration: 3.33 mM.

“And” between values parts separate entries of the source, which are not always exact repeats. Equal entries are not always repeated. Structures can show the parent of a compound that is named as a salt. Screen size: about 5,800 compounds; about 620 (11%) showed activity.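 How the source made its calls: active = score above a cut-off or among the top three wells of a plate; in these data no inactive exceeds 0.85.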 This is a selection; strong and weak results do not stand in their true shares. Where only a bound is given, the exact number is not on record here.

With `COc1cc(C(C)=O)ccc1OCCCN1CCC(c2noc3cc(F)ccc23)CC1`, the “scaled lipid accumulation score” value under setting [1] is active: 0.933.

`O=S(=O)(c1ccccc1)c1cnc2c(N3CCNCC3)cccc2c1`: the “scaled lipid accumulation score” value under setting [1] is active: 0.994. In the case of `O=P(O)(O)OC1[C@H](OP(=O)(O)O)[C@H](O)C(O)[C@H](O)[C@H]1OP(=O)(O)O` (stereo partly drawn) [D-myo-Inositol-1,2,6-triphosphate (sodium salt)], the “scaled lipid accumulation score” value under setting [2] is inactive: 0.004. `CCC(=O)O[C@H]1[C@H](O[C@@H]2[C@@H](C)[C@H](O[C@H]3C[C@@](C)(OC)[C@@H](O)[C@H](C)O3)[C@@H](C)C(=O)O[C@H](CC)[C@@](C)(O)[C@H](O)[C@@H](C)C(=O)[C@H](C)C[C@@]2(C)O)O[C@H](C)C[C@@H]1N(C)C` [Erythromycin estolate]: the “scaled lipid accumulation score” value reads like this: (library stock concentration: 1.9 mM) inactive: ≤ 0; under setting [1], inactive: 0.014. For `Nc1ncnc2c1ncn2[C@@H]1O[C@H](COP(=O)(O)O)[C@@H](O)[C@H]1O` [Adenosine phosphate], the “scaled lipid accumulation score” value is inactive: ≤ 0 (library stock concentration: 5.8 mM) and inactive: ≤ 0 under setting [1]. For the compound `CCCC(=O)Oc1ccc2[nH]c(C(=O)c3cc4ccccc4[nH]3)cc2c1` [PDGF Receptor Tyrosine Kinase Inhibitor II], the “scaled lipid accumulation score” value under setting [3] is inactive: ≤ 0. With `C[N+]1(C)CCC(=C(c2ccccc2)c2ccccc2)CC1` [Diphemanil Methylsulfate], the “scaled lipid accumulation score” value is, setting by setting: under setting [3], inactive: ≤ 0; under setting [1], inactive: 0.001. Regarding `C[N+]1(C)CCC(=C(c2ccccc2)c2ccccc2)CC1` [Diphemanil methylsulfate], the “scaled lipid accumulation score” value was inactive: ≤ 0. On to `COc1cc(/C=C/C(=O)O)ccc1O` [Ferulic Acid], for which the “scaled lipid accumulation score” value is, setting by setting: under setting [3], inactive: ≤ 0; under setting [1], inactive: ≤ 0. `COc1cc(/C=C/C(=O)O)ccc1O` [Ferulic acid]: the “scaled lipid accumulation score” value under setting [1] was inactive: ≤ 0.

As for `NS(=O)(=O)c1cc2c(cc1Cl)NCNS2(=O)=O` [Hydrochlorothiazide], the “scaled lipid accumulation score” value was inactive: ≤ 0. Moreover, under setting [3], the “scaled lipid accumulation score” value was inactive: ≤ 0. Also, where the note is “library stock concentration: 6.7 mM”, the “scaled lipid accumulation score” value is inactive: 0.001. Under setting [1], the “scaled lipid accumulation score” value was inactive: ≤ 0 and inactive: ≤ -0.07.

For `NS(=O)(=O)c1cc2c(cc1Cl)NCNS2(=O)=O`, under setting [1], the “scaled lipid accumulation score” value was inactive: 0.026. Take `O=C1C(=O)N(Cc2ccc(Cl)c(Cl)c2)c2ccccc21` [Apoptosis Activator 2]: the “scaled lipid accumulation score” value runs as follows: under setting [3], inactive: ≤ 0; under setting [1], inactive: ≤ 0 and inactive: 0.068. As to `O=C(NC1CCOCC1)c1ccc(-c2cc(-c3c[nH]nc3-c3ccccn3)ccn2)cc1`, the “scaled lipid accumulation score” value reads like this: under setting [3], inactive: ≤ 0; under setting [1], inactive: ≤ 0.

Regarding `CN(C)CCc1c[nH]c2ccc(C[C@H]3COC(=O)N3)cc12` [zolmitriptan], the “scaled lipid accumulation score” value (library stock concentration: 6.6 mM) is inactive: ≤ -0.006. Take `CN(C)CCc1c[nH]c2ccc(C[C@H]3COC(=O)N3)cc12` [Zolmitriptan]: the “scaled lipid accumulation score” value reads like this: under setting [3], inactive: ≤ 0; (library stock concentration: 7 mM) inactive: ≤ 0; under setting [1], inactive: ≤ 0 and inactive: 0.229. `O=C1c2cccc(O)c2C(=O)c2c(O)cc(CO)cc21` [Aloe-emodin]: the “scaled lipid accumulation score” value under setting [3] was inactive: ≤ 0 and the “scaled lipid accumulation score” value under setting [1] is inactive: ≤ 0. Regarding `O=c1[nH]c(=O)n([C@H]2C[C@H](O)[C@@H](CO)O2)cc1F` [Floxuridine], the “scaled lipid accumulation score” value under setting [3] was inactive: ≤ 0; the “scaled lipid accumulation score” value (library stock concentration: 8.1 mM) was inactive: ≤ 0; the “scaled lipid accumulation score” value under setting [1] is inactive: ≤ 0 and inactive: ≤ -0.027. `CNNCc1ccc(C(=O)NC(C)C)cc1` [Procarbazine HCl]: for the setting “library stock concentration: 9 mM”, the “scaled lipid accumulation score” value is inactive: ≤ 0. On to `CNNCc1ccc(C(=O)NC(C)C)cc1` [Procarbazine hydrochloride], for which the “scaled lipid accumulation score” value is inactive: ≤ 0. `CNNCc1ccc(C(=O)NC(C)C)cc1`: under setting [1], the “scaled lipid accumulation score” value was inactive: ≤ 0.

With `CC(C)CC(NC(=O)OCC1c2ccccc2-c2ccccc21)C(=O)O` (stereo unspecified), the “scaled lipid accumulation score” value under setting [1] is inactive: 0.017. As for `Nc1ccc(C(=O)Oc2ccccc2)c(O)c1` [Phenyl aminosalicylate], the “scaled lipid accumulation score” value (library stock concentration: 8.7 mM) was inactive: 0.075.

As for `Cl.O=C(CCCN1CCC(O)(c2cccc(C(F)(F)F)c2)CC1)c1ccc(F)cc1` [Trifluperidol hydrochloride], under setting [1], the “scaled lipid accumulation score” value was active: 0.88. As for `COc1cc(C)c(/C=C/C(C)=C/C=C/C(C)=C/C(=O)O)c(C)c1C` [Acitretin], the “scaled lipid accumulation score” value reads like this: under setting [3], inactive: 0.039; under setting [1], inactive: ≤ 0. On to `C[n+]1cccc(C(=O)[O-])c1` [Trigonelline], for which the “scaled lipid accumulation score” value was inactive: ≤ 0.

As for `CCCCCCCCCCCCCCC[C@@H](O)[C@@H](N)CO` [Dihydrosphingosine], the “scaled lipid accumulation score” value under setting [2] was inactive: 0.033. Turning to `CNCCC(Oc1ccc(C(F)(F)F)cc1)c1ccccc1.Cl` (stereo unspecified) [Fluoxetine hydrochloride], the “scaled lipid accumulation score” value is active: 1.05.

With `CN(C)CCCN1c2ccccc2CCc2ccc(Cl)cc21.Cl` [Clomipramine hydrochloride], the “scaled lipid accumulation score” value under setting [1] was active: 1.01.

In the case of `CC(C)(F)C[C@H](N[C@@H](c1ccc(-c2ccc(S(C)(=O)=O)cc2)cc1)C(F)(F)F)C(=O)NC1(C#N)CC1` [Odanacatib (MK-0822)], the “scaled lipid accumulation score” value runs as follows: under setting [3], inactive: ≤ 0; under setting [1], inactive: ≤ 0. `CC(C)OC(=O)CCC/C=C\C[C@@H]1[C@@H](CC[C@@H](O)CCc2ccccc2)[C@H](O)C[C@@H]1O` [Latanoprost (free acid)]: the “scaled lipid accumulation score” value under setting [2] was inactive: ≤ 0. As to `CC1(C)[C@@H](O[C@H]2O[C@H](C(=O)O)[C@@H](O)[C@H](O)[C@H]2O[C@@H]2O[C@H](C(=O)O)[C@@H](O)[C@H](O)[C@H]2O)CC[C@]2(C)[C@H]3C(=O)C=C4[C@@H]5C[C@@](C)(C(=O)O)CC[C@]5(C)CC[C@@]4(C)[C@]3(C)CC[C@@H]12` [Ammonium Glycyrrhizinate], the “scaled lipid accumulation score” value runs as follows: under setting [3], inactive: ≤ 0; under setting [1], inactive: ≤ 0. Consider `CCOC(=O)CCC(=O)O[C@H]1[C@H](O[C@@H]2[C@@H](C)[C@H](O[C@H]3C[C@@](C)(OC)[C@@H](O)[C@H](C)O3)[C@@H](C)C(=O)O[C@H](CC)[C@@](C)(O)[C@H](O)[C@@H](C)C(=O)[C@H](C)C[C@@]2(C)O)O[C@H](C)C[C@@H]1N(C)C` [Erythromycin ethylsuccinate], for which the “scaled lipid accumulation score” value by setting is: (library stock concentration: 2.3 mM) inactive: ≤ -0.001; under setting [1], inactive: ≤ 0. For the compound `CCOC(=O)CCC(=O)O[C@H]1[C@H](O[C@@H]2[C@@H](C)[C@H](O[C@H]3C[C@@](C)(OC)[C@@H](O)[C@H](C)O3)[C@@H](C)C(=O)O[C@H](CC)[C@@](C)(O)[C@H](O)[C@@H](C)C(=O)[C@H](C)C[C@@]2(C)O)O[C@H](C)C[C@@H]1N(C)C` [Eryped], under setting [1], the “scaled lipid accumulation score” value was inactive: ≤ 0. In the case of `COc1cc(NC(=O)c2ccc(-c3ccc(Cl)cc3)o2)cc(OC)c1`, the “scaled lipid accumulation score” value runs as follows: under setting [3], inactive: ≤ 0; under setting [1], inactive: 0.431. `C[C@]12C=CC(=O)C=C1CC[C@@H]1[C@@H]2C(=O)C[C@@]2(C)[C@H]1CC[C@]2(O)C(=O)CO` [Prednisone]: the “scaled lipid accumulation score” value is inactive: ≤ 0. Also, under setting [3], the “scaled lipid accumulation score” value is inactive: ≤ 0. In addition, the “scaled lipid accumulation score” value under setting [1] was inactive: ≤ 0. Regarding `C[C@]12C=CC(=O)C=C1CC[C@@H]1C2=CC[C@]2(C)[C@@H](C(=O)CN3CCN(c4cc(N5CCCC5)nc(N5CCCC5)n4)CC3)CC[C@@H]12`, the “scaled lipid accumulation score” value under setting [1] is inactive: ≤ 0. For the compound `Nc1ncnc2nc(-c3ccc(N4CCOCC4)nc3)cc(-c3cccc(Br)c3)c12` [ABT 702 dihydrochloride], the “scaled lipid accumulation score” value under setting [1] is inactive: 0.275.

For the compound `Nc1ncnc2nc(-c3ccc(N4CCOCC4)nc3)cc(-c3cccc(Br)c3)c12`, the “scaled lipid accumulation score” value (library stock concentration: 80 uM) was inactive: ≤ -0.001, the “scaled lipid accumulation score” value (library stock concentration: 400 uM) was inactive: 0.008 and the “scaled lipid accumulation score” value (library stock concentration: 2 mM) was inactive: ≤ -0.001. Take `CC(C)C(=O)Nc1ncc(-c2cc(C(F)F)nn2-c2c(Cl)cccc2Cl)s1`: the “scaled lipid accumulation score” value under setting [1] is active: 1.1. In the case of `c1ccc2c(Oc3nc(Nc4ccc(N5CCOCC5)cc4)c4ncn(C5CCCCC5)c4n3)cccc2c1` [Purmorphamine], the “scaled lipid accumulation score” value is inactive: ≤ 0 under setting [2], inactive: ≤ 0 under setting [3] and inactive: 0.032 under setting [1]. Regarding `COCC(=O)NC/C=C/c1ccc2ncnc(Nc3ccc(Oc4ccc(C)nc4)c(C)c3)c2c1`, the “scaled lipid accumulation score” value under setting [1] is active: 1.46. The same measure, in the same setting: the same measure for `O=c1ccc2c(OCCCCc3ccccc3)c3ccoc3cc2o1` [Psora-4]: inactive: ≤ 0.

As to `CCn1cc(C(=O)O)c(=O)c2cc(F)c(N3CCNC(C)C3)c(F)c21` (stereo unspecified) [Lomefloxacin HCl], where the note is “library stock concentration: 5.7 mM”, the “scaled lipid accumulation score” value was inactive: ≤ 0. Consider `CCn1cc(C(=O)O)c(=O)c2cc(F)c(N3CCNC(C)C3)c(F)c21` (stereo unspecified) [Lomefloxacin hydrochloride], for which the “scaled lipid accumulation score” value was inactive: ≤ 0. Also, for the setting “library stock concentration: 5.2 mM”, the “scaled lipid accumulation score” value was inactive: ≤ 0. Also, the “scaled lipid accumulation score” value under setting [1] was inactive: ≤ 0 and inactive: 0.236. Regarding `COc1cc(C)nc(-n2nc(C)cc2OC)n1` [Epirizole], the “scaled lipid accumulation score” value was inactive: ≤ 0. For the compound `COc1cc(C)nc(-n2nc(C)cc2OC)n1`, under setting [1], the “scaled lipid accumulation score” value is inactive: 0.03. Consider `Cc1nc(Nc2n[nH]c3c2CN(C(=O)N[C@H](CN(C)C)c2ccccc2)C3(C)C)c2sccc2n1`, for which the “scaled lipid accumulation score” value under setting [1] was active: 0.887. Same read-out and setting: the same measure for `CNC(=C[N+](=O)[O-])NCCSCc1csc(CN(C)C)n1`: inactive: 0.006. As for `CNC(=C[N+](=O)[O-])NCCSCc1csc(CN(C)C)n1` [Nizatidine], the “scaled lipid accumulation score” value was inactive: ≤ 0. Besides, under setting [3], the “scaled lipid accumulation score” value was inactive: ≤ 0. Also, the “scaled lipid accumulation score” value (library stock concentration: 6 mM) is inactive: ≤ 0. Under setting [1], the “scaled lipid accumulation score” value is inactive: ≤ 0. `O=C(O)C1=CCNCC1` [Isoguvacine hydrochloride]: the “scaled lipid accumulation score” value under setting [1] was inactive: ≤ -0.07 and inactive: ≤ 0. Same read-out and setting: the same measure for `OCc1ccccc1`: inactive: ≤ 0. With `O=C(O)CCCCCC[C@H]1C(=O)C[C@@H](O)[C@@H]1/C=C/[C@@H](O)Cc1ccccc1` [16-phenyl tetranor Prostaglandin E1], the “scaled lipid accumulation score” value under setting [2] was inactive: 0.017. Take `CC(C)CN(C[C@@H](O)[C@H](Cc1ccccc1)NC(=O)O[C@H]1CCOC1)S(=O)(=O)c1ccc(N)cc1` [Amprenavir]: the “scaled lipid accumulation score” value is inactive: ≤ 0 under setting [3], inactive: ≤ 0 (library stock concentration: 4 mM) and inactive: ≤ 0 under setting [1].

`CN(C)S(=O)(=O)c1ccc2c(c1)/C(=C/c1cc3c([nH]1)CCCC3)C(=O)N2`: the “scaled lipid accumulation score” value under setting [2] was active: 0.413.

On to `CCn1c(=O)[nH]c2ccccc21`, for which the “scaled lipid accumulation score” value under setting [1] is inactive: ≤ -0.006. Still for that read-out and setting: the result for `CCN(CC)CCCCNc1ncc2cc(-c3c(Cl)cccc3Cl)c(NC(=O)NC(C)(C)C)nc2n1` reads active: 0.999. Regarding `CCNC(=O)c1noc(-c2cc(Cl)c(O)cc2O)c1-c1ccc(OC)cc1`, the “scaled lipid accumulation score” value under setting [3] is inactive: 0.783 and the “scaled lipid accumulation score” value under setting [1] was inactive: 0.741.
